Laboratory results taken from PubChem BioAssay AID686979 (National Center for Advancing Translational Sciences (NCATS), 2013).
Where “and” joins values, the source holds several entries; their conditions need not be identical. Equal entries are not always repeated. Hit rate of the full screen: of about 420,000 compounds, about 50,000 (12%) were called active. Inconclusive means that the source gave no clear call. Such entries were picked first, then a sample of the others. Calls come from the whole dose curve; as a rule, active = well fitted inhibition curve with a large enough effect; inconclusive = small, poorly fitted or top-dose-only effect; inactive = flat fitted curve, though single readings scatter. Where the call is inconclusive, the potency comes from a doubtful curve fit.
% is set by controls: 0 for no effect and ±100 for the full control effect; potency is the fitted concentration of half-maximal effect; tags give direction and shape of the fitted curve.

Assay: qHTS for Inhibitors of human tyrosyl-DNA phosphodiesterase 1 (TDP1): qHTS in cells in presence of CPT; note: nearly all actives have a fitted effect of over 55% in size
Settings: chicken DT40 Tdp1-/-;hTDP1 cells + 20 nM CPT, ATP luminescence, 48 h; activity change, negative = growth inhibition: at 46.2 µM (top of the series)
Method in brief: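 Cell growth measured by CellTiter-Glo luminescence after a minimum 48 h, 37 C compound exposure with 20 nM CPT in Tdp1-knockout DT40 cells stably expressing hTDP1, seeded 400/well; qHTS titration format.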
In the case of `CCn1c2ccccc2c2cc(/C=N/NC(=O)c3ccncc3)ccc21`, the Potency is reported as inconclusive: 29.1 µM [inhibitor, single point].
With `O=c1c(OC2OC(CO)C(O)C(O)C2OC2OC(CO)C(O)C(O)C2OC2OC(CO)C(O)C(O)C2O)c(-c2ccc(O)c(O)c2)oc2cc(O)cc(O)c12` (stereo unspecified) the Potency was active: 14.6 µM.
For `CC(C)NC(=O)N(C)C[C@H]1Oc2ncc(Br)cc2C(=O)N([C@H](C)CO)C[C@@H]1C`, the “activity change, negative = growth inhibition” value was inactive: -2.51%.
With `O=C1OC(C(Cl)(Cl)Cl)Nc2ccccc21` (stereo unspecified) the “activity change, negative = growth inhibition” value was inactive: -4.87%.
For `Cc1cccc(C(=O)N[C@H](C(=O)Nc2nc3ccccc3[nH]2)C(C)C)c1`, the Potency was active: 3.26 µM.
In the case of `COc1ccc(CCN2C(=O)c3oc4ccc(F)cc4c(=O)c3C2c2ccc(C(C)(C)C)cc2)cc1` (stereo unspecified), the Potency is reported as inconclusive: 6.51 µM [inhibitor, full curve].
With `O=C1N=C(N2CCCCC2)SC1=C1CCCC1` the “activity change, negative = growth inhibition” value was inactive: 1.57%.
With `COc1cc(-c2coc3c(C(=O)NCc4ccccc4)cccc23)ccc1O` the Potency was active: 18.4 µM.
For `Cc1nc2ccc(S(=O)(=O)N(C)CC(=O)Nc3ccc(Br)c(C)c3)cc2s1`, the Potency was inconclusive: 29.1 µM [inhibitor, single point].
In the case of `CCc1cccc(C)c1NC(=O)Cn1ccn(-c2ccc(F)cc2)c(=O)c1=O`, the “activity change, negative = growth inhibition” value is reported as inactive: 9.93%.
For `CCCNC(=O)N1CCCC(C(=O)c2cccc(Cl)c2)C1` (stereo unspecified), the Potency was inconclusive: 0.0164 µM [inhibitor, full curve, poor fit].
In the case of `CCOc1ccc(S(=O)(=O)N(CC)CC(=O)NCc2cccnc2)cc1`, the “activity change, negative = growth inhibition” value is reported as inactive: -4.79%.
With `COC(=O)[C@@]12CCCCN1[C@H](c1ccc(-c3ccc4c(c3)OCO4)cc1)[C@H]1C(=O)N(C)C(=O)[C@H]12` the Potency was active: 13 µM.
For `Brc1ccc(-c2n(-c3ccccn3)c3ccccc3[n+]2-c2ccccn2)cc1`, the Potency was active: 18.4 µM.
With `COc1ccc(C(N)=S)cc1` the “activity change, negative = growth inhibition” value was inactive: -0.368%.
With `Cc1ccc2cc(CCNC(=O)c3ccc(S(=O)(=O)N4CCOCC4)cc3)c(=O)[nH]c2c1C` the Potency was inconclusive: 29.1 µM [inhibitor, single point].
For `Cc1cccc(N2CCN(CC(=O)Nc3ccc(S(=O)(=O)N4CCOCC4)cc3)CC2)c1C`, the Potency was active: 14.6 µM.
In the case of `COc1cccc(CN2Cc3cccc4c3[C@H](C=CC4)CC2=O)c1`, the Potency is reported as inconclusive: 35.5 µM [inhibitor, single point].
With `CNC(=S)N/N=C(\C)c1cccc([N+](=O)[O-])c1` the Potency was active: 1.3 µM.
For `COc1cc(/C(C)=N/NC(=O)c2nnn(-c3nonc3N)c2-c2cccs2)ccc1O`, the Potency was inconclusive: 20.6 µM [inhibitor, single point].
In the case of `O=C(NCc1ccco1)c1cc([N+](=O)[O-])ccc1N1CCCCC1`, the Potency is reported as active: 16.4 µM.
For `COc1ccc(Br)cc1C1=CC(=O)C[C@H](c2ccc(F)cc2)C1`, the Potency was inconclusive: 29.1 µM [inhibitor, single point].
In the case of `COc1ccc(C(=O)NNC(=S)NC(=O)c2ccc(Br)o2)cc1OC`, the Potency is reported as inconclusive: 20.6 µM [inhibitor, single point].
In the case of `Cc1c(C)c2ccc(OCC(=O)Nc3cccnc3)c(C)c2oc1=O`, the Potency is reported as inconclusive: 16.4 µM [inhibitor, partial curve].
For `Cc1ccccc1-c1nn2c(=O)cc(CN3CCN(C(=O)c4ccc(C(C)(C)C)cc4)CC3)nc2s1`, the Potency was active: 8.2 µM.
With `Oc1ccccc1C1C=C(c2ccc3c(c2)OCO3)NC(c2ccc(Br)cc2)N1` (stereo unspecified) the Potency was active: 11.2 µM.
In the case of `CCc1ccc(N2C(=O)C(Cl)=C(N3CCCCCC3)C2=O)cc1`, the Potency is reported as inconclusive: 23.1 µM [inhibitor, single point].
With `O=C(CN1CCN(C(=O)c2cccc(S(=O)(=O)N3CCCC3)c2)CC1)Nc1cccc(F)c1` the Potency was inconclusive: 29.1 µM [inhibitor, single point].
For `O=C(CSc1nc(-c2ccccc2)no1)N1CCCCC1`, the Potency was inconclusive: 29.1 µM [inhibitor, single point].
For `Cc1ccc(C(c2nnnn2CS(=O)(=O)c2ccc(C)cc2)N2CCN(c3ncccn3)CC2)cc1` (stereo unspecified), the Potency was inconclusive: 0.731 µM [inhibitor, full curve, poor fit].
With `O=C(NCCCc1ccccc1)c1cc(COc2ccc(F)cc2Cl)on1` the Potency was active: 20.6 µM.
With `O=C1Cc2ccccc2Sc2c(OCCN3CCCCC3)cccc21` the Potency was inconclusive: 29.1 µM [inhibitor, single point].
In the case of `CC1(C(=O)Nc2cccc(Oc3ccccc3)c2)CCN1Cc1cccc2c1OCO2` (stereo unspecified), the Potency is reported as inconclusive: 29.1 µM [inhibitor, single point].
With `c1ccc2c(c1)OCC(CNc1ncnc3nc[nH]c13)O2` (stereo unspecified) the Potency was inconclusive: 29.1 µM [inhibitor, single point].
With `O=C(NNC(=O)c1cc(-c2ccccc2)nc2ccccc12)c1csc(N2CCOCC2)n1` the Potency was inconclusive: 18.4 µM [inhibitor, single point].
In the case of `CC(=O)NNC(=O)c1csc(Cc2c(Cl)sc3ccc(Cl)cc23)n1`, the Potency is reported as inconclusive: 29.1 µM [inhibitor, single point].
For `CCc1ccc(-c2csc(NC(=O)C3CCCO3)c2C(=O)OC(C)C)cc1` (stereo unspecified), the Potency was inconclusive: 16.4 µM [inhibitor, single point].
For `CC(C)Sc1nnc(CNC(=O)C23CC4CC(CC(C4)C2)C3)n1Cc1ccccc1`, the Potency was inconclusive: 16.4 µM [inhibitor, single point].
With `COc1ccc(S(=O)(=O)N2CCC(n3c(C(F)(F)F)nc4cccnc43)CC2)cc1OC` the Potency was inconclusive: 20.6 µM [inhibitor, single point].
For `Cc1cccc(NC(=O)CSc2nnc(CNC(=O)c3ccco3)n2C)c1`, the Potency was “inactive”.
With `COCc1ccc(CN2CCCCC2C(=O)Nc2ccc(Oc3ccccc3)nc2)o1` (stereo unspecified) the Potency was inconclusive: 29.1 µM [inhibitor, single point].
For `COc1ccc(OC)c(NC(=O)Cc2coc3ccc4ccccc4c23)c1`, the Potency was inconclusive: 35.5 µM [inhibitor, single point].
With `Cc1ccc(S(=O)(=O)N2C[C@@H]3CCCC[C@@H]3[C@@H](C)[C@H]2c2cn(Cc3ccccc3)c3ccc(F)cc23)cc1` the Potency was active: 6.51 µM.
In the case of `O=C(CCc1cn2ccccc2n1)NC1CCCc2c1cnn2-c1ccccc1F` (stereo unspecified), the “activity change, negative = growth inhibition” value is reported as inactive: -11%.
For `COc1cccc(N2CCN(C(=O)c3ccc(-c4ccccc4)cc3)CC2)c1`, the “activity change, negative = growth inhibition” value was inactive: 31.7%.
With `Cc1cccc(OCC(=O)Nc2ccc3oc(=O)ccc3c2)c1` the “activity change, negative = growth inhibition” value was inactive: 10.5%.
With `Cc1ccc(C)c2c(C)ccnc12` the “activity change, negative = growth inhibition” value was inactive: -14.8%.
For `CCCCCCOC(=O)C(C#N)c1nc2ccccc2nc1N1CCN(C)CC1` (stereo unspecified), the Potency was inconclusive: 29.1 µM [inhibitor, single point].
For `COC(=O)c1cc(-c2ccc(Cl)cc2)n[nH]1`, the Potency was inconclusive: 23.1 µM [inhibitor, single point].
In the case of `Cn1c(SCC(=O)NNC(=O)c2ccc(Cl)cc2)nnc1-c1cccnc1`, the “activity change, negative = growth inhibition” value is reported as inactive: 8.21%.
In the case of `Cc1ccccc1S(=O)(=O)N1[C@@H](c2ccc(Br)cc2)C(C(=O)O)=CC[C@H]1c1ccc(Cl)cc1`, the “activity change, negative = growth inhibition” value is reported as inactive: -17.9%.
With `CCCCn1nnnc1C(c1ccccc1)N1CCN(c2c(Cl)cncc2Cl)CC1` (stereo unspecified) the Potency was inconclusive: 18.4 µM [inhibitor, single point].
With `Cc1cc(C)c2c(=O)n3c(nc2c1)C(Cc1ccc(O)cc1)NC(=O)c1cccnc1-3` (stereo unspecified) the Potency was inconclusive: 25.9 µM [inhibitor, single point].
With `CCOc1cc(CNCc2cc(OC)cc(OC)c2)ccc1OC` the Potency was active: 13 µM.
In the case of `Cc1nc2c(OCCC3CCCCC3)cccn2c1N(C)C(=O)CCC1CCCC1`, the Potency is reported as inconclusive: 25.9 µM [inhibitor, single point].
For `CSc1ccccc1OCc1cc(C(=O)NCCc2nc(C)cc(C)n2)no1`, the Potency was inconclusive: 29.1 µM [inhibitor, single point].
For `O=C(Nc1cc(N2CCCCC2)ncn1)c1ccccc1`, the “activity change, negative = growth inhibition” value was inactive: -29.7%.
In the case of `CCOc1ccccc1-n1cc2c(c1-c1ccc(OC)cc1)c(=O)n(C)c(=O)n2C`, the Potency is reported as inconclusive: 23.1 µM [inhibitor, single point].
For `Cc1cc(C(=O)Nc2ccc(F)cc2C)cs1`, the Potency was inconclusive: 32.6 µM [inhibitor, single point].
For `CC(C)(C)C(=O)OC/C(N)=N/OC(=O)c1ccc(Cl)cc1`, the Potency was inconclusive: 0.0058 µM [inhibitor, full curve, poor fit].
With `CC1CCN(S(=O)(=O)c2ccc3c(c2)N(CC(=O)NCCCN(Cc2ccccc2)C(C)C)C(=O)CO3)CC1` the Potency was inconclusive: 29.1 µM [inhibitor, single point].
For `CCn1c(-c2ccccc2)ccc(C#N)c1=O`, the “activity change, negative = growth inhibition” value was inactive: 13%.
With `CCOC(=O)N1CCN(CCCc2ccccc2)CC1` the “activity change, negative = growth inhibition” value was inactive: 5.9%.
With `CCOc1ccc(NC(=O)CN(C)C(=O)CCNC(=O)c2ccco2)cc1OCC` the “activity change, negative = growth inhibition” value was inactive: 11.9%.
In the case of `COc1ccc(NC(=O)c2cn(-c3ccccc3)nc2-c2ccc(C)cc2)cc1`, the Potency is reported as inconclusive: 23.1 µM [inhibitor, single point].
For `O=C(O)c1ccc(Cl)c(S(=O)(=O)N(Cc2ccccc2)c2ccc(Cl)cc2)c1`, the “activity change, negative = growth inhibition” value was inactive: -13.5%.
For `COC(=O)c1ccc(NC(=O)CN2CCN(c3ccc(Cl)cc3)CC2)cc1`, the Potency was “inactive and inconclusive: 16.4 µM [inhibitor, single point]”.
With `O=C1CC(c2ccccc2)Cc2[nH]c(=O)c(C(=O)Nc3cccc(Cl)c3)cc21` (stereo unspecified) the “activity change, negative = growth inhibition” value was inactive: -18.1%.
In the case of `C[C@H](NC(=O)c1ccc(Cl)cc1)C(=O)OCn1nnc2ccccc2c1=O`, the Potency is reported as inconclusive: 6.51 µM [inhibitor, single point].
In the case of `O=c1[nH]nc(Br)c(=O)n1C(c1ccccc1)c1ccccc1`, the Potency is reported as active: 20.6 µM.
For `COc1ccc(C2=NS(=O)(=O)N(C)C(C(=O)NCc3ccccn3)=C2)cc1OC`, the “activity change, negative = growth inhibition” value was inactive: -20.5%.
